Reference: PubChem BioAssay AID1159614 (National Center for Advancing Translational Sciences (NCATS), 2016)
Out of some 45,000 compounds screened, about 65 (0.1%) were called active. The call rests on the fitted dose curve; in most records, active means well fitted activation curve with a large enough effect; inconclusive means small, poorly fitted or top-dose-only effect; inactive means no such curve, though single readings can be large or run the other way. The list shows a part of the results. Numbered stars: 1 amine (or outer) side, 2 acyl side, 3 side chain; on linkers, the order of the positions; unused ones are H or OH. Bridge positions count the residues as written; N and C are the ends. Square brackets hold non-standard residues; d marks the D form. Peptide text beside a SMILES is read from it. I, II: the chains in the order shown. Actinocin(9to1) = Cc1c2oc3c(C)ccc(C(=O)[*:1])c3nc-2c(C(=O)[*:2])c(N)c1=O; NMeV = CN[C@H](C(=O)O)C(C)C; Sar = CNCC(=O)O

molecular target: Galactocerebrosidase (Homo sapiens) (UniProt P54803); assay: A Novel Cell-Based Assay to Identify Small Molecules for B -Galactocerebrosidase; details: 145M-Twi-hGALC-G270D cells (Twitcher mouse brain line with human GALC G270D), HMU-beta-Gal fluorescence, 48 h; series mostly up to 57.5 µM; activation: at the top concentration; further: 0% is about no effect; nearly all actives have a fitted effect of over 65% in size
Chain of UniProt P54803 (P54803 whole entry, looked up): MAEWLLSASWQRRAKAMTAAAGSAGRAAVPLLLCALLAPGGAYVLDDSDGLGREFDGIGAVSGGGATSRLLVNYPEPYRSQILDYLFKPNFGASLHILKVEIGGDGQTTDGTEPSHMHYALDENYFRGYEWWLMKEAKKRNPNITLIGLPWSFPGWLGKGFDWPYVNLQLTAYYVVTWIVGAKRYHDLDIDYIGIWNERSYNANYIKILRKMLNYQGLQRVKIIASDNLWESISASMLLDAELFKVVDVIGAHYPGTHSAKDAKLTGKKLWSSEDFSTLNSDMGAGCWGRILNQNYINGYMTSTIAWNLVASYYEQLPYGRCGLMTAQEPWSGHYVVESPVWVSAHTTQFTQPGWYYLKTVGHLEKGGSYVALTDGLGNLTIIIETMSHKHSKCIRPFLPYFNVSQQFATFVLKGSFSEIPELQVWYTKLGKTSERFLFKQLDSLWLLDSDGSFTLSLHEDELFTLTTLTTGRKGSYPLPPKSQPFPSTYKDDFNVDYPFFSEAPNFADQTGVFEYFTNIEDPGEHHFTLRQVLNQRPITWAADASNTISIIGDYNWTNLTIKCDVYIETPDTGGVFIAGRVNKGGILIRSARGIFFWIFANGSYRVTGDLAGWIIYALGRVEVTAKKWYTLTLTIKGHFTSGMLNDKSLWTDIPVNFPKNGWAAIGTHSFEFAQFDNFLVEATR
Method in brief: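 Brain-derived Twitcher mouse 145M-Twi cells stably expressing human GALC-G270D or wild-type GALC, treated live, then residual GALC activity read by fluorescence of HMU-b-Gal substrate (0.1 mM final) in citrate-phosphate buffer pH 5.2 with sodium taurocholate. Signal increase indicates enhancement.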

activation, inactive:
CCS(=O)(=O)c1ncc(Cl)c(C(=O)NCc2ccccc2)n1 -10.2%
O=C(Nc1cccc(C(F)(F)F)c1)C1CCN(S(=O)(=O)c2cccs2)CC1 -9.74%
CC(=O)Nc1c(C)nn(-c2ccccc2)c1N1CCC(C(=O)NCc2ccc(F)cc2)CC1 -8.35%
C=C(C)Cn1c(SCC(=O)c2ccccc2)nc2sc3c(c2c1=O)CCCC3 -5.38%
COc1cc(Cl)c(C)cc1NC(=O)Cn1c(C)c2cnn(-c3ccccc3)c(=O)c2c1C -11.8%
CC(=O)c1ccc(NC(=O)CSc2nnc(N)s2)cc1 -5.38%
CCn1cc2nc(SCc3cccc(C(F)(F)F)c3)n(Cc3ccc(OC)cc3)c(=O)c2n1 -22.1%
CCOCCn1c(N2CCCN(C)CC2)nc2ccccc21 1.84%
Cc1ccccc1C(=O)N1CCC(C(=O)Nc2ccc(F)cc2F)CC1 24.7%
CCCNC(=O)CN1CCN(c2ccc(NC(=O)c3ccc(OC)cc3)cc2C(=O)O)CC1 1.15%
COc1ccc(CNC(=O)c2ccc(NC(=O)N3CCSc4ncccc43)cc2)cc1 -5.84%
Cc1c2oc3c(C)ccc(C(=O)N[C@@H]4C(=O)N[C@H](C(C)C)C(=O)N5CCC[C@H]5C(=O)N(C)CC(=O)N(C)[C@@H](C(C)C)C(=O)O[C@@H]4C)c3nc-2c(C(=O)N[C@@H]2C(=O)N[C@H](C(C)C)C(=O)N3CCC[C@H]3C(=O)N(C)CC(=O)N(C)[C@@H](C(C)C)C(=O)O[C@@H]2C)c(N)c1=O (I: T[dV]P[Sar][NMeV] / II: T[dV]P[Sar][NMeV]; ester I:1-I:C, II:1-II:C; linker I:N-II:N via Actinocin(9to1)) -12.6%
CCOC(=O)c1cccc(NC(=O)NC(C)c2c(-n3cccc3)sc3c2CCN(C)C3)c1 (stereo not drawn) -17.1%
Cc1cc2c(cc3c(SCC(=O)Nc4ccc(Cl)cc4F)nncn32)o1 -8.02%
Cc1ccc(S(=O)(=O)c2nc(-c3ccccc3F)oc2NCc2ccccc2)cc1 -4.65%
Cc1nc(N2CCOCC2)c2c(C(=O)N3CCN(c4ccccc4)CC3)c(C)oc2n1 -4.34%
COCCCN1C(=O)c2oc3ccccc3c(=O)c2C12C(=O)N(C)c1ccccc12 (stereo not drawn) -26.3%
O=C(COc1ccccc1F)Nc1ccc(OCc2cc(=O)n3ccccc3n2)cc1 6.04%
COc1ccc(CC(=O)N2CCc3cc(OC)c(OC)cc3C2COc2ccc3c(C)cc(=O)oc3c2)cc1OC (stereo not drawn) -18.6%
COC(=O)c1ccc(Cn2c(SCc3ccc(F)cc3)nc3ccncc32)cc1 -13.5%
Cc1ccc(CNC(=O)CSC2=Nc3ccccc3N=C(c3ccc(F)cc3)C2)cc1 -5.37%
O=c1ccc2cc(S(=O)(=O)Nc3ccc(OC(F)(F)F)cc3)ccc2[nH]1 -17.8%
CCOc1ccc(NC(=O)CCc2c(C)nc3c(-c4ccccc4)c(C)nn3c2C)cc1 2.86%
CCOc1ccc(Nc2nn(-c3ccc(OC(F)(F)F)cc3)nc2C(C)=O)cc1 -4.79%
CCc1ccc(OCC(=O)Nc2ncn[nH]2)c(Br)c1 -15.5%
COc1cccc(-c2noc(-c3cc(C(C)C)[nH]n3)n2)c1OC -16.8%
COc1cccc(Cn2c(-c3nonc3NC(C)=O)nc3ccccc32)c1 0.343%
Cc1cc(C)cc(NC(=O)c2c(C)oc3nc(C)nc(N4CCCC4)c23)c1 -15.2%
COCCc1ccc(OCC2CO2)cc1 (stereo not drawn) -5.92%
CC(C)CCn1c(=O)c2cccnc2n(CC(=O)Nc2ccccc2F)c1=O -33.1%
O=C(COc1ccc(F)cc1)NCc1ccc2c(c1)CCN2C(=O)c1ccccc1 -20.3%
CNC(=O)c1ccc2c(c1)N(Cc1ccccc1Cl)C(=O)c1ccccc1S2 -11.6%
Cc1cccc(NC(=O)c2sc3nc(-c4cc5ccc(O)cc5oc4=O)[nH]c(=O)c3c2C)c1 18%
O=C(Cn1c(=O)nc(-c2ccccc2F)c2cc(Cl)ccc21)NCCCc1ccccc1 -10.1%
CC(=O)OC[C@H]1O[C@@H](OC(C)=O)[C@H](OC(C)=O)[C@@H]1OC(C)=O -5.51%
COc1ccccc1CNC(=O)CCNS(=O)(=O)c1ccc2c(c1)oc(=O)n2C -6.96%
COc1ccc2c(c1)c(CC(=O)OCC(=O)O)c(C)n2C(=O)c1ccc(Cl)cc1 -9.41%
CCOc1c(Cl)cc(C(=O)N(Cc2ccc(N(C)C)cc2)Cc2ccco2)cc1Cl -14.7%
COc1ccc(CNC(=O)C2CCCN(c3nnc(C)c4c(C)n(-c5ccc(C)cc5)nc34)C2)cc1 (stereo not drawn) -7.81%
COc1ccc(N2CCN(Cc3nnc(-c4ccc5c(c4)OCO5)o3)CC2)cc1 -8.11%
Cc1ccc(C)c(Cn2c3ccccc3c3cnn(CC(=O)NCCc4ccccc4)c(=O)c32)c1 -16.9%
Cc1ccc2c(c1)c1c3n2CCN(C(=O)c2cccc(C(F)(F)F)c2)C3CCC1 (stereo not drawn) -15%
CCc1cccc(C)c1Nc1c(-c2ccsc2)nc2ncccn12 -13.7%
Cc1ccc(-n2nc(C)c3nc(CCC(=O)Nc4cccc(F)c4)c(=O)n(C)c32)cc1 -18.8%
Cc1cccc(CNC(=O)CCCN2C(=O)CCn3nc(-c4cccn4C)cc32)c1 -8.15%
Clc1ccc(-c2noc(-c3cccnc3NCc3ccco3)n2)cc1 8.74%
COc1ccc(C2CC(=O)c3cc(-c4nc(-c5cccc(Cl)c5)cs4)c(=O)[nH]c3C2)cc1 (stereo not drawn) -9.7%
Cc1ccc2c(=O)cc(C(=O)Nc3sc4c(c3C(=O)NCC3CCCO3)CCCC4)oc2c1 (stereo not drawn) -25.9%
CCOc1ccccc1N(C)C(=O)c1c2c(nc3ccccc13)C(=O)N(C1CCCCC1)C2 -18.2%
O=S(=O)(c1ccc(Cl)cc1Cl)n1ccnc1 -14.2%
CSc1oc(-c2cccs2)nc1S(=O)(=O)c1ccc(Br)cc1 -26.7%
CCC1CN(C(=O)N2CCC(C(=O)N3CCN(c4ccccc4F)CC3)CC2)c2ccccc2O1 (stereo not drawn) -5.92%
CCC(Sc1nc2ncccc2o1)C(=O)Nc1ccc(OC)c(OC)c1 (stereo not drawn) -4.94%
COc1ccc(C(=O)Nc2nc3ccccc3n2CCOc2ccc(Cl)cc2)cc1 -7.62%
CCOc1ccc(N(CC)C(=O)CCc2nc(-c3ccccc3F)no2)cc1 -11%
CNC(=O)c1cnc2sc(N3CCCCCC3)nn2c1=O -23.4%
CCc1ccc(NC(=O)C(Cc2ccccc2)NS(=O)(=O)c2ccc3c(c2)c(=O)n(C)c(=O)n3C)cc1 (stereo not drawn) -14%
CCCOc1ccc(Oc2nc(NCC(C)C)nc(N(C)C)n2)nn1 -10.8%
